Data as given in paper PMC6919601, “Identification of Plasmodium dipeptidyl aminopeptidase allosteric inhibitors by high throughput screening” (PLoS ONE, 2019).
About 230 (0.21%) of roughly 110,000 compounds showed an effect of 50% or more. The list shows a part of the results.

Target: DPAP1 (Plasmodium falciparum, UniProt Q8IIJ9)
Assay: primary screen, percent inhibition; read by cleavage of a fluorogenic dipeptide substrate; higher = more effect of the substance
Design: species or system P. falciparum D10 trophozoite lysates; single well
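Note: 30 min substrate incubation versus DMSO and 10 µM JCP410 controls.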

Chain of DPAP1 (Q8IIJ9 whole entry, looked up): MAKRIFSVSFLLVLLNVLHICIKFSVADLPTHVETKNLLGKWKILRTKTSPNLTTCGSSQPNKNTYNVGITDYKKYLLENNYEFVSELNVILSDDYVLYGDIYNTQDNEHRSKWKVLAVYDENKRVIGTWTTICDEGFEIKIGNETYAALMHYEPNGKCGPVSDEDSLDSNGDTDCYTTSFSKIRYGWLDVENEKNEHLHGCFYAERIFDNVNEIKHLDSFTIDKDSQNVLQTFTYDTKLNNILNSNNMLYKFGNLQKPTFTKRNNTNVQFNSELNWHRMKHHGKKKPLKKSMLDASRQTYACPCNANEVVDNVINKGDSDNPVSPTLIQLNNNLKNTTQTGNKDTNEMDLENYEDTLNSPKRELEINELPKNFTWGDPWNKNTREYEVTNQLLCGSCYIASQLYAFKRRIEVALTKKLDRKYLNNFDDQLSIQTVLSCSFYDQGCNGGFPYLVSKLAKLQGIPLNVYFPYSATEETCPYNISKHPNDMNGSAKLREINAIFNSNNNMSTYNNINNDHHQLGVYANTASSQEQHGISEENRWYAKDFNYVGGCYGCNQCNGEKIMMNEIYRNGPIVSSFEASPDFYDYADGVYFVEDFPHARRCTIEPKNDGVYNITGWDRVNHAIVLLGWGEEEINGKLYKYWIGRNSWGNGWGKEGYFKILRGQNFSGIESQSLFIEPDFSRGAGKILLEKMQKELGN

Structure (SMILES)	% Inhibition @ 10 uM
O=C(Cn1cnc2c(oc3ccccc32)c1=O)N1CCCCC1	-0.0401%
Cc1ccc2c(c1)C(O)c1ccccc1-2 (stereo not shown)	-4.76%
O=C1CC(c2nc(-c3ccccc3)cs2)C2(CCCCC2)O1 (stereo not shown)	4.08%
CCc1ccc(NCc2nc(-c3ccccc3)no2)cc1	1.86%
COc1ccc(N2Cc3cc(C)c(C)cc3C2)c(OC)c1	3.29%
Cc1ccc(CCNC(=O)C2CCN(c3nn4c(=O)cc(C)nc4s3)CC2)cc1	4.55%
O=C(O)C(Cc1ccc(F)cc1)NS(=O)(=O)c1ccc2oc3ccccc3c2c1 (stereo not shown)	1.76%
CCCCNC(=O)c1cccc2c1C(=O)N(CCC)C2	-4.14%
O=C(NC1CCCCC1)c1ccccc1NC(=O)C1CC=CCC1C(=O)O (stereo not shown)	2.48%
O=C(CS(=O)(=O)c1ccc(C(F)(F)F)cc1Cl)Nc1cccc(C(=O)O)c1	-4.97%
COc1cc(OC)c(OC)cc1/C=C1\N=C(c2ccccc2Br)OC1=O	-25.1%
COc1ccc(NC(=O)c2nn(C)cc2Br)cc1	-4.43%
COCCN1C(=O)C(O)=C(C(=O)c2ccc(OC)c(C)c2)C1c1cccs1 (stereo not shown)	9.94%
CC(C)(C)c1ccc(OCCSc2nc(-c3ccco3)nc3cc(=O)[nH]n23)cc1	2.82%
CC(C)c1ccc(-c2c(NC3CCCCC3C)c(=O)c2=O)cc1 (stereo not shown)	-5.3%
Cc1ccc(S(=O)(=O)C2(C(=O)N3CCC(Cc4ccccc4)CC3)CC2)cc1	-1.92%
CCOC(=O)N1CCN(C(=O)C2c3ccccc3C(=O)N3CCc4ccccc4C23)CC1 (stereo not shown)	-1.29%
CC1CCCN(Cc2ccnc3ccccc23)C1 (stereo not shown)	-5.31%
N#CCNC(=O)C(CC1CCCCC1)C(=O)Nc1cccc(Oc2ccccc2)c1 (stereo not shown)	-5.21%
O=c1oc2ccccc2cc1-c1nc(-c2cccs2)cs1	-14.4%
CC(NC(=O)Cn1nc(Cc2cccnc2)c2ccccc2c1=O)c1ccc2c(c1)OCCO2 (stereo not shown)	5.09%
CC1=CC2=NC(=O)/C(=C\c3ccc(OCCOc4ccc(Cl)c(C)c4)cc3)C(=N)N2O1	0.317%
O=C(NCc1ccc2c(c1)OCO2)c1cc(-n2cnnc2)ccc1Cl	-2.41%
O=c1/c(=C\c2ccccc2C(F)(F)F)sc2nc3ccccc3n12	1.84%
Cn1cccc1C1C(C#N)=C(N)OC2=C1C(=O)CCC2 (stereo not shown)	-1.98%

Structure (SMILES)	% Inhibition @ 10 uM
COc1ccc(S(=O)(=O)NC(C)C)cc1C(=O)NC1CCCCC1	-2.82%
N#CC1=C(N)OC2=C(C(=O)CCC2)C1c1ccc(OCc2ccccc2)cc1 (stereo not shown)	2.36%
O=C(CCc1nnc2ccc(N3CCOCC3)nn12)N1CCN(C(=O)c2ccco2)CC1	-2.55%
N#Cc1c(NC(=O)c2ccccc2C(=O)O)sc2c1CCCC2	-4.61%
COc1cc(CNCc2c(C(=O)O)c(C)n(Cc3ccc(F)cc3)c2C)cc(OC)c1OC	1.41%
Cc1nn(C)c(C)c1NC(=O)/C=C/c1ccco1	1.88%
O=C(NCc1ccc(F)cc1)C1CCC(=O)N1C1CCCCC1 (stereo not shown)	-0.0542%
Cn1cnc([N+](=O)[O-])c1C(=O)Nc1ccccc1	-3.85%
CCN1C(=O)S/C(=C/c2cn(CC)c3ccccc23)C1=O	-0.519%
CCCn1c(SC/C=C(/C)Cl)nc2c1c(=O)[nH]c(=O)n2C	-0.13%
CCOc1ccc(-n2c(SCC(N)=O)nnc2-c2c[nH]c3ccccc23)cc1	2.12%
COc1c(Cl)cnn(-c2cccc(C)c2)c1=O	-9.3%
FC(F)(F)c1cccc(-n2nnc(-c3ccccc3Cl)n2)c1	-9.21%
Cc1ccc2c(CNCCc3ccc(Cl)cc3)c(C(=O)O)n(C)c2c1	-0.118%
CCOC(=O)c1[nH]c(C)c(C(=O)N2CC3CC(C2)c2cccc(=O)n2C3)c1C (stereo not shown)	4.88%
COc1ccccc1CNC(=O)C1CCCN1S(=O)(=O)c1cccc2cccnc12 (stereo not shown)	0.981%
CCN(CC)CCNS(=O)(=O)c1c(C)c(C)cc2nsnc12	-1.33%
C=CCn1c(SC(C)C)nc2sc(C)c(C)c2c1=O	2.38%
Cc1ccc(S(=O)(=O)/N=C(/N=S(=O)(c2ccc(Br)cc2)c2ccc(Br)cc2)c2ccccc2)cc1	-5.33%
CCCCCCn1c(CN2CCN(C(=O)c3ccco3)CC2)nc2c1c(=O)n(C)c(=O)n2C	-3.23%
Cc1ccc2c(CNCc3ccc(C)o3)c(C(=O)O)n(Cc3ccc(F)cc3Cl)c2c1	-0.177%
CC(C)(CO)NCc1cccc(OCc2ccc(Cl)cc2)c1	-9.7%
COC(=O)/C(C#N)=C/c1ccc[nH]1	-3.78%
CCc1ccccc1-c1ccc(C(=O)N[C@@H](CC(C)C)C(=O)NCC#N)cc1	-1.41%
Cc1ccc(-n2ncc(C(=O)NCCc3ccsc3)c2C2CCNCC2)cc1C	-4.59%

Structure (SMILES)	% Inhibition @ 10 uM
Cn1c2c(c(=O)n(C)c1=O)CN(CCCN1CCCC1=O)CN2	-1.08%
CCc1nn(CCCC(=O)NCc2ccccc2Cl)c(=O)c2cc3occc3n12	4.55%
Cc1ccc(S(=O)(=O)N2CCN(c3ccccc3)CC2)cc1	0.827%
CCOc1ccccc1OCCCN1CCCC1	-3.78%
CCNC(=O)N(CC)Cc1nc(-c2ccc(OC)cc2)no1	1.67%
COc1ccccc1C1=NN(C(=O)c2ccccc2)C(c2ccco2)C1 (stereo not shown)	-3.1%
O=C(c1nnc(-c2ccc(CN3CCc4ccccc4C3)cc2)o1)N1CCN(c2ccccn2)CC1	4.95%
CC(C)=NOC(=O)CCS(=O)(=O)c1nc(-c2ccc3c(c2)OCO3)cc(C(F)(F)F)n1	4.33%
CCOC(=O)c1c(/N=C/N(C)C)c2cc([N+](=O)[O-])cnc2n1C	-1.42%
COc1cc(OC)cc(C(=O)N2CCN(Cc3ccccc3Cl)CC2)c1	-5.23%
c1ccc(C2=NC(c3ccccc3)c3c(ccc4ccccc34)N2)cc1 (stereo not shown)	-4.01%
CC1CCc2c(sc3nc(-c4ccc(Cl)cc4)cn23)C1 (stereo not shown)	-4.17%
Cc1nnc(O)c2c1nnn2Cc1ccc(F)cc1	-1.71%
COc1cc(CNc2ccc3[nH]c(O)nc3c2)cc(Br)c1OCC(=O)NC(C)(C)C	1.64%
O=C1C=CC(=NOC(=O)c2ccccc2Br)C=C1	18.5%
CCOc1ccc(C2CNC(=O)C2)cc1 (stereo not shown)	0.878%
Cc1ccccc1OC(C)C(=O)Nc1ccc(Br)cc1 (stereo not shown)	-4.02%
CCN(Cc1ccccc1)C(=O)Cn1ncc2c3ccccc3n(C)c2c1=O	-0.23%
CC(C)CC(NC(=O)N(C)C1CCN(Cc2ccccc2)C1)C(=O)NCC#N (stereo not shown)	-9.15%
C=CCn1c(SCC(=O)Nc2ccc(OC)cc2OC)nc2sc(C)cc2c1=O	-4.28%
Cc1ccc2c(CNCC(C)c3ccccc3)c(C(=O)O)n(Cc3cccc(F)c3)c2c1 (stereo not shown)	-1.63%
COc1ccc(OC)c(C(=O)c2ccc(C(=O)N3CCCCCC3)cc2)c1	2.23%
Cc1cc(N)n(C(C)(C)C)n1	-1.03%
CC1=C(C(=O)N2CCN(C3CCCCC3)CC2)C2(CCCCC2)OC1=O	-5.58%
ONc1nc(-c2ccccc2)cc(-c2ccc(F)cc2)n1	-1.5%

Structure (SMILES)	% Inhibition @ 10 uM
OC(COc1cccc2ccccc12)CN1CCN(CC(O)COc2cccc3ccccc23)CC1 (stereo not shown)	51.4%
COc1ccc(S(=O)(=O)N2CCC(NC(=O)NC3CCC(C)CC3)CC2)cc1 (stereo not shown)	3.88%
Cc1ccc(-c2nc(O)c3c4c(sc3n2)CCCC4)cc1	3.69%
CCOc1ccc(C2CC3=NC(C)=C(C(=O)OC)C(c4ccc(C)o4)C3=C(O)C2)cc1OC (stereo not shown)	-1.17%
CC1=C(C(=O)Nc2ccccc2C)C(c2ccc(O)cc2)C2=C(O)CC(C)(C)CC2=N1 (stereo not shown)	-5.63%
CC(C)CN1C(=O)c2ccc(C(=O)Nc3nccs3)cc2C1=O	4.42%
O=C(CC1COc2ccccc2O1)Nc1ccccc1 (stereo not shown)	0.161%
CCOc1cc2c(cc1OCC)C(C(=O)O)C(c1ccc(OC)c(Br)c1)N(C)C2=O (stereo not shown)	5.12%
COc1ccc(N2C(N)=C(C#N)C(c3ccc(F)cc3)C3=C2CC(C)(C)CC3=O)c(OC)c1 (stereo not shown)	2.36%
O=C(O)CCN1C(=O)c2ccc(NC(=O)CCC3CCCCC3)cc2C1=O	2.13%
CSc1nc(O)c2c(n1)N=C1CCCC(O)=C1C2c1cccc(O)c1 (stereo not shown)	5.11%
COCCNC(=O)CCn1c(=O)c2cccn2c2cccnc21	1.22%
O=C1/C(=C\c2ccc(O)c(O)c2)SC(=S)N1Cc1ccccc1	-6.88%
Cc1cc(C)n(-c2nc3ccccc3nc2N2CCN(S(=O)(=O)c3ccc(Cl)s3)CC2)n1	-0.0709%
CCc1ccccc1NC(=O)C(C)N(c1ccccc1)S(C)(=O)=O (stereo not shown)	0.755%
Cc1ccc(-c2nc(CS(=O)(=O)CC(=O)NCc3cccc(Cl)c3)c(C)o2)cc1	-1.89%
Cc1nc(N)nc(-c2ccccc2O)n1	-10.1%
COc1ccc(N2CCN(C3CC(=O)N(c4cccc(C(F)(F)F)c4)C3=O)CC2)cc1 (stereo not shown)	3.91%
CCCC[C@@H](NC(=O)[C@@H](CCC)NC(=O)OCc1ccccc1)C(=O)C[N+](=O)[O-]	-0.972%
CC1CCc2c(sc(NC(=O)COc3ccc4c(c3)CCC4)c2C(N)=O)C1 (stereo not shown)	-1.95%
Cc1ccc(C(=O)Nc2ncc(Cc3cccc(Cl)c3)s2)cc1	17.4%
CC(=O)Nc1ccc(NC(=O)CN(c2cccc(F)c2)S(C)(=O)=O)cc1	8.06%
